# ± gives the standard deviation of the averaged measurements. In all, about 33,000 sequences were measured (“E-score (dimensionless, -0.5 to 0.5)”: median about -0.046, highest 2% from about 0.36 on). The list shows a part of the results.
# Test system: T1, SpTbr T-box DNA-binding domain (GST fusion)
# T1 sequence: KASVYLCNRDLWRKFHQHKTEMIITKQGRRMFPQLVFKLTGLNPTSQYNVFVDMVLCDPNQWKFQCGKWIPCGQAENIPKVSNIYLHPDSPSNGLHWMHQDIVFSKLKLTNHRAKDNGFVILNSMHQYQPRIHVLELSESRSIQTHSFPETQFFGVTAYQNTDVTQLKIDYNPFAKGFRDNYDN
# Experiment: PBM E-score of 8-mer (E-score (dimensionless, -0.5 to 0.5)); Tbr is Tbrain of the sea star Patiria miniata (Pm) or the sea urchin Strongylocentrotus purpuratus (Sp); higher = stronger binding preference; most listed sequences are background and not binding sites
# Conditions: the construct has about 5 more residues each side
# How it was run: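 Expression of GST-fused Tbr T-box DNA-binding domains, each holding the full T-box plus roughly five flanking residues, was carried out in BL21 E. coli at 20 °C, with purification by glutathione affinity chromatography. Universal Agilent arrays made double-stranded by primer extension were incubated with the protein at 200 nM in PBS (pH 7.5), then scanned and quantified. All ungapped 8-mers were scored from probe intensities, and each received an enrichment E-score from the Universal PBM Analysis Suite, averaged over duplicate arrays.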
row,Sequence,PBM E-score of 8-mer
1,ATTCTCCG,0.00222 ± 0.13
2,CACACGAG,0.152 ± 0.0068
3,ATTTTGTA,0.0194 ± 0.069
4,TCAGCGAA,0.0544 ± 0.067
5,CAGCTTCA,0.25 ± 0.0097
6,ATTGCGGA,0.0037 ± 0.042
7,CCGCAAGG,-0.0599 ± 0.044
8,CTAACGCA,0.234 ± 0.031
9,GAGTCCAC,-0.0179 ± 0.022
10,TATGAACA,-0.0802 ± 0.022
11,GCGAGGCA,0.213 ± 0.013
12,AAGACGCT,0.0268 ± 0.03
13,ATTTAATA,0.063 ± 0.024
14,AAATGGAA,-0.103 ± 0.0085
15,AAGAAGCA,-0.223 ± 0.034
16,GCGCTACC,0.295 ± 0.0067
17,TTATCAAA,-0.0294 ± 0.071
18,CGAGAAAA,0.238 ± 0.011
19,CTAATCGC,0.173 ± 0.021
20,GTGAGGTA,0.227 ± 0.019
21,CAGCCACC,0.138 ± 0.042
22,AGTAATAT,-0.0535 ± 0.011
23,CTCAGACC,-0.248 ± 0.03
24,CACAAAAG,0.0569 ± 0.073
25,CAGGGCTC,-0.407 ± 0.071

row,Sequence,PBM E-score of 8-mer
1,CTCGGGTC,-0.0239 ± 0.0073
2,AGGAGGCC,-0.296 ± 0.029
3,GAATATAA,-0.0655 ± 0.016
4,CGGTAATA,-0.248 ± 0.019
5,ATAGCTTC,-0.232 ± 0.042
6,GATACTAC,-0.138 ± 0.027
7,TTACGAAA,-0.128 ± 0.065
8,AACTATTG,0.00025 ± 0.014
9,AAGCCATT,-0.117 ± 0.049
10,AGTAACCC,-0.157 ± 0.0023
11,CCCAAAGC,-0.202 ± 0.035
12,CCTCTCCG,-0.0582 ± 0.13
13,AGTGACAA,0.397 ± 0.014
14,AGTAGGCA,-0.0551 ± 0.025
15,ACGACTCG,0.232 ± 0.016
16,TCACGACA,0.272 ± 0.02
17,AGATGAGG,-0.224 ± 0.021
18,AGGAGTGC,0.0744 ± 0.064
19,GAAACCTC,-0.135 ± 0.14
20,CAGGTAAC,0.1535 ± 0.0014
21,CGTATCTA,-0.232 ± 0.004
22,ACAGAAAC,0.0632 ± 0.015
23,CCCTCAAC,-0.136 ± 0.012
24,CGATATCG,0.222 ± 0.029
25,ATCTGACA,0.167 ± 0.018

row,Sequence,PBM E-score of 8-mer
1,AGCTCTCG,-0.074 ± 0.02
2,CCATGTAG,-0.2268 ± 0.0017
3,AATGCCCT,-0.179 ± 0.06
4,AAGAAAGA,-0.235 ± 0.0079
5,CTAGAAAC,-0.109 ± 0.031
6,GGTGCCGA,0.36 ± 0.0091
7,ACGGTCGG,-0.16 ± 0.017
8,TGATCGCA,0.322 ± 0.025
9,GCAGATCC,-0.0736 ± 0.062
10,CCACATTC,0.14 ± 0.06
11,AGGGGGCC,-0.217 ± 0.058
12,CATTAGCA,0.274 ± 0.0072
13,TGACCTAA,-0.177 ± 0.015
14,AGGTGACT,0.276 ± 0.001
15,CTTTCCGC,0.0156 ± 0.018
16,ATCCTGTG,0.00404 ± 0.015
17,GATAGACA,-0.105 ± 0.065
18,CCAGTCGG,-0.165 ± 0.051
19,ATGGGCGG,-0.0157 ± 0.07
20,AATAATTA,-0.0779 ± 0.088
21,AAGTATGG,-0.286 ± 0.029
22,ATTAGTAC,-0.00749 ± 0.045
23,CTAAGATC,-0.119 ± 0.044
24,CCCAATAG,0.0509 ± 0.13
25,AGCGTTTC,-0.126 ± 0.022

row,Sequence,PBM E-score of 8-mer
1,GCGTCCGA,-0.048 ± 0.026
2,GGTAGGTA,-0.175 ± 0.033
3,AGCCTTTG,-0.222 ± 0.051
4,AACGGAAT,0.0951 ± 0.12
5,ACAGCCGA,0.0547 ± 0.034
6,CGAGCACA,-0.0373 ± 0.063
7,GAATGTAA,-0.163 ± 0.0047
8,CGCGCTAA,0.338 ± 0.0063
9,ATTCCAAC,-0.193 ± 0.04
10,GCCCGGCC,-0.158 ± 0.019
11,AAACATTC,-0.0068 ± 0.0056
12,GGCGGATA,-0.294 ± 0.015
13,AGATTAGG,-0.171 ± 0.017
14,GCCAACCA,0.0609 ± 0.021
15,CGTGCGTA,-0.00609 ± 0.055
16,AGCCGGAA,-0.233 ± 0.011
17,ACGTAGCA,0.0591 ± 0.083
18,AAGGTTAA,-0.128 ± 0.084
19,CGACGACC,0.138 ± 0.018
20,CGCCTTCC,0.033 ± 0.0063
21,GACAACTC,0.252 ± 0.019
22,ACCCCCTC,-0.0672 ± 0.037
23,CCATGGTC,-0.0694 ± 0.056
24,ATGCAGAG,-0.18 ± 0.023
25,ATGGCGAA,0.0787 ± 0.01

row,Sequence,PBM E-score of 8-mer
1,GGCTGAGA,0.0781 ± 0.035
2,AAAAACAA,-0.165 ± 0.049
3,CGTCCTCA,0.0207 ± 0.0083
4,GTACCGAA,-0.254 ± 0.0068
5,ACGAATTC,-0.0844 ± 0.07
6,CGCACCAA,0.2705 ± 0.0014
7,GGGATCGA,-0.161 ± 0.0078
8,ACCGTACC,-0.0313 ± 0.04
9,CAGCCCCC,-0.0955 ± 0.021
10,CTGGGAGA,-0.0994 ± 0.031
11,AGCTGGGG,-0.224 ± 0.038
12,CCCCCGGC,-0.134 ± 0.017
13,ATATGGAG,-0.204 ± 0.01
14,GATCCCGA,-0.164 ± 0.0081
15,GTCCATCA,-0.219 ± 0.0084
16,GTAAGGCA,-0.2643 ± 0.0015
17,AGGTCCCG,-0.195 ± 0.016
18,CACGGCTG,0.158 ± 0.0055
19,GATCGGGA,-0.172 ± 0.013
20,CTAAATAG,-0.0998 ± 0.07
21,AGTCAATG,-0.173 ± 0.12
22,AGGGGAAG,-0.0777 ± 0.06
23,CCTGTGTC,0.0515 ± 0.0033
24,CGTAGTAC,-0.287 ± 0.056
25,CCGCTCAA,-0.188 ± 0.093

row,Sequence,PBM E-score of 8-mer
1,GCCTCCGA,-0.0614 ± 0.071
2,ATCAGCGC,0.131 ± 0.014
3,AGACACTG,-0.0737 ± 0.012
4,CTGCATCA,-0.1 ± 0.036
5,AAAGGGGT,0.0258 ± 0.013
6,CCTACTTC,-0.172 ± 0.055
7,ATATACAC,0.00434 ± 0.022
8,AACAACGG,-0.0918 ± 0.00098
9,CAAGACTC,-0.0934 ± 0.015
10,CCGGTCAA,-0.0653 ± 0.027
11,CGGCACCC,0.254 ± 0.038
12,CATCGCGA,0.197 ± 0.0055
13,CGGTCAAA,-0.133 ± 0.058
14,GGAGGAAC,0.0261 ± 0.0092
15,ATAAGGCG,0.132 ± 0.032
16,AGCTCAAA,-0.0834 ± 0.014
17,CGACGTGA,0.1944 ± 0.0016
18,ATCTCAAG,-0.194 ± 0.006
19,AGGCTTGA,-0.0292 ± 0.044
20,CAGGTGGC,0.323 ± 0.0069
21,ATAGTTGC,-0.0102 ± 0.0014
22,ACTTGAAT,-0.136 ± 0.049
23,ACCAGCCG,0.103 ± 0.028
24,CGTAGTCA,0.058 ± 0.058
25,TACAGAAA,-0.16 ± 0.068

row,Sequence,PBM E-score of 8-mer
1,CGACCTCC,-0.143 ± 0.083
2,CCAGTTCA,0.0129 ± 0.036
3,GAGGATAC,0.118 ± 0.007
4,CCTCAGTA,-0.105 ± 0.0033
5,AATCATTA,-0.0678 ± 0.095
6,ACTTCAGA,-0.173 ± 0.046
7,TAGCGCCA,0.334 ± 0.025
8,CAACTGAG,-0.018 ± 0.0018
9,GACAACCA,0.262 ± 0.0098
10,CGGTCAAC,0.0294 ± 0.072
11,AGACGCCG,-0.0415 ± 0.057
12,TAGGGATA,-0.323 ± 0.053
13,GAAGCCGA,-0.0138 ± 0.031
14,CGGCCCAC,-0.155 ± 0.03
15,GGCATCGA,-0.0435 ± 0.034
16,CCCTCCGC,0.0925 ± 0.039
17,AATACACA,0.153 ± 0.049
18,ATGTGGAA,0.0153 ± 0.034
19,GGAATAAC,0.0802 ± 0.023
20,CTGGTTAA,-0.131 ± 0.031
21,CCTCTTAG,-0.103 ± 0.044
22,TAGTTTGA,-0.107 ± 0.065

# Source: the supplement of paper PMC4166925
